In paper PMC3936774 (Nucleic Acids Research, 2013):

B1: Escherichia coli Hfq F42W, C-terminally truncated core ([…]) (domain or fragment)
chain: not shown
B2: Escherichia coli Hfq Y25W, C-terminally truncated core ([…]) (domain or fragment)
chain: not shown
B3: Escherichia coli Hfq F11W, C-terminally truncated core ([…]) (domain or fragment)
chain: not shown
B4: Escherichia coli Hfq F39W, C-terminally truncated core ([…]) (domain or fragment)
chain: not shown

Target: the molecule itself
Experiment: crystal structure

Row | Protein | stoichiometry N
1 | B1 | 6
2 | B2 | 6
3 | B3 | 6
4 | B4 | 6
